T1: RBFOX1 RRM (Homo sapiens, UniProt Q9NWB1 109-208)
T1 sequence: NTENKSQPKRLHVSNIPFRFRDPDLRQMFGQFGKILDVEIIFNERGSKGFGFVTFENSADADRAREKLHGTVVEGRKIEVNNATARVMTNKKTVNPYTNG

B1: CCAGCAC (DNA:RNA)
RNA: GGGAGACCGGAAUUCAGAUUGUCCCCAGCACUUAAAUCCCGUCGUAGCCACCA
DNA 1: CAATCTGAATTCCGGTCTCCC
DNA 2: TGGTGGCTACGACGGGATT
B2: CUACGAG (DNA:RNA)
RNA: B1 RNA with C26U, G28C, C29G, C31G
DNA 1: CAATCTGAATTCCGGTCTCCC
DNA 2: TGGTGGCTACGACGGGATT
B3: CUUCCUC (DNA:RNA)
RNA: B1 RNA with C26U, A27U, G28C, A30U
DNA 1: CAATCTGAATTCCGGTCTCCC
DNA 2: TGGTGGCTACGACGGGATT
B4: CCCUUCA (DNA:RNA)
RNA: B1 RNA with A27C, G28U, C29U, A30C, C31A
DNA 1: CAATCTGAATTCCGGTCTCCC
DNA 2: TGGTGGCTACGACGGGATT
B5: GCCCGCC (DNA:RNA)
RNA: B1 RNA with C25G, A27C, G28C, C29G, A30C
DNA 1: CAATCTGAATTCCGGTCTCCC
DNA 2: TGGTGGCTACGACGGGATT
B6: CCGAAAA (DNA:RNA)
RNA: B1 RNA with A27G, G28A, C29A, C31A
DNA 1: CAATCTGAATTCCGGTCTCCC
DNA 2: TGGTGGCTACGACGGGATT
B7: ACAACCA (DNA:RNA)
RNA: B1 RNA with C25A, G28A, A30C, C31A
DNA 1: CAATCTGAATTCCGGTCTCCC
DNA 2: TGGTGGCTACGACGGGATT
B8: UCCUGUG (DNA:RNA)
RNA: B1 RNA with C25U, A27C, G28U, C29G, A30U, C31G
DNA 1: CAATCTGAATTCCGGTCTCCC
DNA 2: TGGTGGCTACGACGGGATT
B9: CAGUAAG (DNA:RNA)
RNA: B1 RNA with C26A, A27G, G28U, C29A, C31G
DNA 1: CAATCTGAATTCCGGTCTCCC
DNA 2: TGGTGGCTACGACGGGATT
B10: ACUAUCU (DNA:RNA)
RNA: B1 RNA with C25A, A27U, G28A, C29U, A30C, C31U
DNA 1: CAATCTGAATTCCGGTCTCCC
DNA 2: TGGTGGCTACGACGGGATT
B11: UGAAGAA (DNA:RNA)
RNA: B1 RNA with C25U, C26G, G28A, C29G, C31A
DNA 1: CAATCTGAATTCCGGTCTCCC
DNA 2: TGGTGGCTACGACGGGATT
B12: CACAUAC (DNA:RNA)
RNA: B1 RNA with C26A, A27C, G28A, C29U
DNA 1: CAATCTGAATTCCGGTCTCCC
DNA 2: TGGTGGCTACGACGGGATT
B13: AGAACUA (DNA:RNA)
RNA: B1 RNA with C25A, C26G, G28A, A30U, C31A
DNA 1: CAATCTGAATTCCGGTCTCCC
DNA 2: TGGTGGCTACGACGGGATT
B14: CGGCAAA (DNA:RNA)
RNA: B1 RNA with C26G, A27G, G28C, C29A, C31A
DNA 1: CAATCTGAATTCCGGTCTCCC
DNA 2: TGGTGGCTACGACGGGATT
B15: AUUACGC (DNA:RNA)
RNA: B1 RNA with C25A, C26U, A27U, G28A, A30G
DNA 1: CAATCTGAATTCCGGTCTCCC
DNA 2: TGGTGGCTACGACGGGATT
B16: UCCGAGA (DNA:RNA)
RNA: B1 RNA with C25U, A27C, C29A, A30G, C31A
DNA 1: CAATCTGAATTCCGGTCTCCC
DNA 2: TGGTGGCTACGACGGGATT
B17: UCAAUAC (DNA:RNA)
RNA: B1 RNA with C25U, G28A, C29U
DNA 1: CAATCTGAATTCCGGTCTCCC
DNA 2: TGGTGGCTACGACGGGATT
B18: ACAUUAA (DNA:RNA)
RNA: B1 RNA with C25A, G28U, C29U, C31A
DNA 1: CAATCTGAATTCCGGTCTCCC
DNA 2: TGGTGGCTACGACGGGATT
B19: UUAGUCC (DNA:RNA)
RNA: B1 RNA with C25U, C26U, C29U, A30C
DNA 1: CAATCTGAATTCCGGTCTCCC
DNA 2: TGGTGGCTACGACGGGATT
B20: GGUUAGA (DNA:RNA)
RNA: GGGAGACCGGAAUUCAGAUUGUCCGGUUAGAUUAAAUCCCGUCGUAGCCACCA
DNA 1: CAATCTGAATTCCGGTCTCCC
DNA 2: TGGTGGCTACGACGGGATT
B21: CUCGAGG (DNA:RNA)
RNA: B1 RNA with C26U, A27C, C29A, A30G, C31G
DNA 1: CAATCTGAATTCCGGTCTCCC
DNA 2: TGGTGGCTACGACGGGATT
B22: UUCCGUG (DNA:RNA)
RNA: GGGAGACCGGAAUUCAGAUUGUCCUUCCGUGUUAAAUCCCGUCGUAGCCACCA
DNA 1: CAATCTGAATTCCGGTCTCCC
DNA 2: TGGTGGCTACGACGGGATT
B23: CUUGCAC (DNA:RNA)
RNA: B1 RNA with C26U, A27U
DNA 1: CAATCTGAATTCCGGTCTCCC
DNA 2: TGGTGGCTACGACGGGATT
B24: GUUUUUG (DNA:RNA)
RNA: B20 RNA with G26U, A29U, G30U, A31G
DNA 1: CAATCTGAATTCCGGTCTCCC
DNA 2: TGGTGGCTACGACGGGATT
B25: AGCUUUC (DNA:RNA)
RNA: B20 RNA with G25A, U27C, A29U, G30U, A31C
DNA 1: CAATCTGAATTCCGGTCTCCC
DNA 2: TGGTGGCTACGACGGGATT
B26: CGAGAAC (DNA:RNA)
RNA: B1 RNA with C26G, C29A
DNA 1: CAATCTGAATTCCGGTCTCCC
DNA 2: TGGTGGCTACGACGGGATT
B27: GCCCGUG (DNA:RNA)
RNA: B22 RNA with U25G, U26C
DNA 1: CAATCTGAATTCCGGTCTCCC
DNA 2: TGGTGGCTACGACGGGATT
B28: GCGGAUC (DNA:RNA)
RNA: B1 RNA with C25G, A27G, C29A, A30U
DNA 1: CAATCTGAATTCCGGTCTCCC
DNA 2: TGGTGGCTACGACGGGATT
B29: AGGAUCA (DNA:RNA)
RNA: B20 RNA with G25A, U27G, U28A, A29U, G30C
DNA 1: CAATCTGAATTCCGGTCTCCC
DNA 2: TGGTGGCTACGACGGGATT
B30: GUCGGGA (DNA:RNA)
RNA: B20 RNA with G26U, U27C, U28G, A29G
DNA 1: CAATCTGAATTCCGGTCTCCC
DNA 2: TGGTGGCTACGACGGGATT
B31: UCCAAGA (DNA:RNA)
RNA: B20 RNA with G25U, G26C, U27C, U28A
DNA 1: CAATCTGAATTCCGGTCTCCC
DNA 2: TGGTGGCTACGACGGGATT

Residue numbers refer to the chain shown, from its start. The list shows a part of the results.

The target of this test is T1, RBFOX1 RRM. Description: EMSA; HiTS-Eq, 1 nM pool, 10 min; buffer printed only for the single-RNA assays: 10 mM Tris pH 7.5, 150 mM NaCl, 3.4 mM EDTA, 0.001% NP-40, 30 C. To be noted: tags: His6 N-terminal (pET28a); label: 5' 32P. An outline of the steps:
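These values rest on relative association constants, computed from read-count changes of each RNA species versus the control reaction and normalised to the cognate motif. Reads came from free RNA recovered by 8% native PAGE after purified RbFox RRM (wild type or mutant) at increasing concentrations was equilibrated for 10 min in 50 µL with 1 nM of a 5′-radiolabelled pool with 7 randomized nucleotides and DNA-annealed flanks.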
In general terms: In EMSA bound probe runs differently from free probe, usually more slowly.
For B1, the binding signal was 0.00938 KA relative to UGCAUGU. With B2 the figure was 0.00732 KA relative to UGCAUGU. Under B3 stands 0.0039 KA relative to UGCAUGU. With B4 the figure was 0.00263 KA relative to UGCAUGU.

For the molecule B5, the binding signal was 0.0156 KA relative to UGCAUGU. With B6 the figure was 0.00334 KA relative to UGCAUGU. Take B7: the binding signal was 0.000855 KA relative to UGCAUGU.

Turning to B8, the binding signal was 0.0187 KA relative to UGCAUGU. Under B9 stands 0.00966 KA relative to UGCAUGU. Consider B10, for which the binding signal was 0.000857 KA relative to UGCAUGU.

As for B11, the binding signal was 0.0167 KA relative to UGCAUGU. As to B12, the binding signal was 0.00055 KA relative to UGCAUGU. Under B13 stands 0.00165 KA relative to UGCAUGU; under B14, 0.00434 KA relative to UGCAUGU; under B15, 0.00592 KA relative to UGCAUGU. Turning to B16, the binding signal is 0.00898 KA relative to UGCAUGU. With B17 the figure was 0.000299 KA relative to UGCAUGU; with B18, 0.000265 KA relative to UGCAUGU; with B19, 0.011 KA relative to UGCAUGU. Under B20 stands 0.0155 KA relative to UGCAUGU; under B21, 0.00615 KA relative to UGCAUGU. Under B22 stands 0.00966 KA relative to UGCAUGU; under B23, 0.0183 KA relative to UGCAUGU; under B24, 0.0228 KA relative to UGCAUGU. Consider B25, for which the binding signal is 0.0108 KA relative to UGCAUGU.

B26: the binding signal was 0.00543 KA relative to UGCAUGU.

Take B27: the binding signal is 0.0203 KA relative to UGCAUGU. For the molecule B28, the binding signal was 0.00958 KA relative to UGCAUGU.

As to B29, the binding signal is 0.0143 KA relative to UGCAUGU. As to B30, the binding signal is 0.0117 KA relative to UGCAUGU. Under B31 stands 0.00589 KA relative to UGCAUGU.

Source of the values: publication PMC9911399, “Two distinct binding modes provide the RNA-binding protein RbFox with extraordinary sequence specificity”.
